The record followed here is paper PMC4336329 (PLoS ONE, 2015).

In all, about 310,000 compounds went through this assay and about 2,200 (0.71%) showed an effect of 50% or more. The effect is printed as a negative number. Some of the results follow.

human ether-à-go-go-related gene (hERG) potassium channel, sequence (Q12809 whole entry, looked up): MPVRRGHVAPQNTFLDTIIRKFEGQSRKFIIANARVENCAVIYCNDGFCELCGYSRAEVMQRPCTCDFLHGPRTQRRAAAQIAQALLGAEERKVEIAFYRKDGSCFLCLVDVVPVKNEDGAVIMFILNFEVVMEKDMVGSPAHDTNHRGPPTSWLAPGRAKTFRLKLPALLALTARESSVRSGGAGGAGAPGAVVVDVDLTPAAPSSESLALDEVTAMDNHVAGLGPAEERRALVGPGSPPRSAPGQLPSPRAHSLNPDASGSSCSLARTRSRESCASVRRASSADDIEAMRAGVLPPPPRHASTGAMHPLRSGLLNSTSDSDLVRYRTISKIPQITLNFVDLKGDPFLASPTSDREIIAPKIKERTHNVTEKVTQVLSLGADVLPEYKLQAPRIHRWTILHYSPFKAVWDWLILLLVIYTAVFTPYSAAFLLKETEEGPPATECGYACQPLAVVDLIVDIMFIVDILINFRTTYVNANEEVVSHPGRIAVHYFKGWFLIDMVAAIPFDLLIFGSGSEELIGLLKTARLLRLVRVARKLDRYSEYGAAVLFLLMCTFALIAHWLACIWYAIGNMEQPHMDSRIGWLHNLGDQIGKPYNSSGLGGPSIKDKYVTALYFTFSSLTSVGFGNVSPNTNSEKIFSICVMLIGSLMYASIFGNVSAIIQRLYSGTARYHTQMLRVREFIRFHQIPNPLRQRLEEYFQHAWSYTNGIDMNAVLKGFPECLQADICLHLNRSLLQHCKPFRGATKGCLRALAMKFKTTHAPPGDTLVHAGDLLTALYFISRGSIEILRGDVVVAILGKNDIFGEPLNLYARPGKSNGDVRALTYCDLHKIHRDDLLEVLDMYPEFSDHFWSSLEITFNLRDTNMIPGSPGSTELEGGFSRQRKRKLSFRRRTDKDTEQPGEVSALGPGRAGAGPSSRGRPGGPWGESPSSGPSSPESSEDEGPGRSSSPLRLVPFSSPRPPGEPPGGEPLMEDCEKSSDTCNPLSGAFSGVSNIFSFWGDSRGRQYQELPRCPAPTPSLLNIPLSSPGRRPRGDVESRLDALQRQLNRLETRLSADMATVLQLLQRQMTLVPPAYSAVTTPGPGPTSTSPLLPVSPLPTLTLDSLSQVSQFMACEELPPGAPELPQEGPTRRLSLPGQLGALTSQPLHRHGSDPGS

The assay has as its target human ether-à-go-go-related gene (hERG) potassium channel (human, UniProt Q12809). Nature of the assay: primary screen, population patch clamp on CHO cells stably expressing hERG.
On to `CCCc1nn(C)c(C(=O)Nc2ccc(C)c(C)c2)c1Cl`, for which the “hERG current change (%, negative = inhibition) at 1uM” value is reported as -4.47%. As for `CCCCn1c(N)c(N(CCC(C)C)C(=O)C2CSC3(C)CCC(=O)N23)c(=O)[nH]c1=O` (stereo not drawn), the “hERG current change (%, negative = inhibition) at 1uM” value stood at 8.09%. As for `Cc1ccc(CC(=O)Nc2ccc([N+](=O)[O-])cc2C)cc1`, the “hERG current change (%, negative = inhibition) at 1uM” value stood at 6.47%. With `COCC(C)n1c(C)cc(C(=O)COC(=O)c2c(NC(C)=O)sc(C)c2C)c1C` (stereo not drawn), the “hERG current change (%, negative = inhibition) at 1uM” value stood at 2.97%. The value for `CS(=O)(=O)Nc1ccc(C2=NN(C(=O)c3cccc(F)c3)C(c3cccs3)C2)cc1` (stereo not drawn) was -7.01%; that for `CCN1c2ccccc2-c2nc3ccccc3n2C1c1cccs1` (stereo not drawn) was 4.28%; that for `COc1ccc(-n2c(Cc3cccn3C)nnc2SCC(=O)Nc2cccc(NC(C)=O)c2)cc1` was 3.64%. The value for `CC(C)(C)c1ccc(OCc2ccc(C(=O)NN)o2)cc1` was 17.2%; that for `CCOc1ccc(N2CC(C(=O)Nc3cccc(S(=O)(=O)N4CCCCC4)c3)CC2=O)cc1` (stereo not drawn) was 11.4%; that for `CCCc1[nH]nc2c1C1(C(=O)N(CC)c3ccccc31)C(C#N)=C(N)O2` (stereo not drawn) was 0.976%.

For `O=C1CC(c2cccs2)Cc2nc(NCC3CCCO3)ncc21` (stereo not drawn), the “hERG current change (%, negative = inhibition) at 1uM” value was 10.8%.

`N#Cc1ccsc1NC(=O)C1CCN(C(=O)c2ccc(Cl)cc2)CC1`: the “hERG current change (%, negative = inhibition) at 1uM” value was -21.3%. Next, `Cc1ccc(COC(=O)c2nn(C)c(=O)c3ccccc23)cc1`: 3.84%; `CCOc1ccc(N2CC(C(=O)N3CCN(c4ccccn4)CC3)CC2=O)cc1` (stereo not drawn): -9.35%; `O=C(CSc1cccc[n+]1[O-])c1cccs1`: 14.6%. Next, `COC(=O)C(Cc1ccc(O)cc1)NC(=O)CCOc1ccc(OC)cc1` (stereo not drawn): 11.8%.

For the compound `COc1ccc(-c2nc(C#N)c(N3CCN(C(=O)c4ccco4)CC3)o2)cc1OC`, the “hERG current change (%, negative = inhibition) at 1uM” value was 4.46%. Take `Cc1cc(F)c(F)c(C(=O)N2CCCCC2C)c1Cl` (stereo not drawn): the “hERG current change (%, negative = inhibition) at 1uM” value is 7.82%. Next, `Cc1cccc2c1nc(-c1ccccc1)n1nnnc21`: 8.83%; `COc1ccc(S(=O)(=O)N(C)c2ccc(C(=O)NCc3ccccn3)cc2)cc1OC`: 13.2%. Next, `CC(C)(C)OC(=O)NCCCC[C@H](NC(=O)c1nc[nH]c1C(=O)NCc1ccc(CNC(=O)OC(C)(C)C)cc1)C(=O)OC(C)(C)C`: -2.55%.

For `Cc1ccc(-n2c(O)c(C=NCc3ccccn3)c3ccccc3c2=O)cc1C`, the “hERG current change (%, negative = inhibition) at 1uM” value was 8.66%. Regarding `Cc1ccc(Cl)c(OCC(=O)NC2CCN(Cc3ccccc3)CC2)c1`, the “hERG current change (%, negative = inhibition) at 1uM” value was -93.9%. Next, `Cn1ccnc1C(O)(c1ccccc1)c1nccn1C`: 10.5%; `CCCCn1c(NCc2ccc(N(C)C)cc2)nc2ccccc21`: -0.192%; `Cc1ccc(-c2nn(-c3ccccc3)cc2/C=N/NC(=O)c2ccc(Br)o2)cc1`: 5.72%.

For the compound `Cc1ccc(N2C(=O)c3ccccc3NC2C(C)Cc2ccc3c(c2)OCO3)cc1` (stereo not drawn), the “hERG current change (%, negative = inhibition) at 1uM” value was found to be 18.4%. Take `CCOC(=O)COc1nc(-c2ccco2)cc(-c2ccco2)c1C#N`: the “hERG current change (%, negative = inhibition) at 1uM” value is on record as 11.5%.

Turning to `Cc1nnc(-c2cccc(Br)c2)c2cn(-c3ccc(Br)cc3)nc12`, the “hERG current change (%, negative = inhibition) at 1uM” value is on record as -14.1%. As for `CC1CCN(S(=O)(=O)c2cccc(S(=O)(=O)N3CCOCC3)c2)CC1`, the “hERG current change (%, negative = inhibition) at 1uM” value is given as -15.9%.

With `COc1ccc(OC)c(/C=N/NC(=O)c2cc[n+](Cc3ccccc3)cc2)c1.[Cl-]`, the “hERG current change (%, negative = inhibition) at 1uM” value is listed as 3.84%.

For the compound `Cc1nc2ccccc2c(=O)n1-c1cc(F)ccc1F`, the “hERG current change (%, negative = inhibition) at 1uM” value was 1.27%. The value for `Cc1cccc(-n2c(SCC(=O)N3CCN(c4ccccn4)CC3)nnc2N2CCOCC2)c1` was 0.137%. Next, `O=C(OCCCOC(=O)c1ccc(O)cc1)c1ccc(O)cc1`: 1.77%; `C[C@]1(CC/C(=C/CO)CO)[C@H](CO)CC[C@@]23COC(=O)C2=CCC[C@@H]31`: 19.5%; `CCNC(=O)COC(=O)c1ccc(-c2nc3ccccc3s2)s1`: 8.26%. Next, `Cc1nonc1OCCNCCNc1ccc([N+](=O)[O-])c2cccnc12`: -2.21%.

As to `COc1ccc(NC(=O)C2OCCc3ccccc32)c(OC)c1` (stereo not drawn), the “hERG current change (%, negative = inhibition) at 1uM” value came out at 12.2%.

In the case of `C=CCn1c(SCC(=O)Nc2nnc(C)s2)nnc1C1CC1`, the “hERG current change (%, negative = inhibition) at 1uM” value was found to be 16.3%.

On to `CCCNC(=O)c1ccc(N2CCC3(CC2)CC(c2ccccc2)=NO3)c([N+](=O)[O-])c1`, for which the “hERG current change (%, negative = inhibition) at 1uM” value was -25.4%. As for `CCOC(=O)c1c(C)[nH]c(C(=O)COC(=O)CCC2CCCC2)c1C`, the “hERG current change (%, negative = inhibition) at 1uM” value is given as 4.98%. The value for `CCCC[N+](C)(C)CCC(=O)NC(C)(C)CS(=O)(=O)[O-]` was -1.09%; that for `Cc1cc(NC(=O)c2cc(-c3ccccn3)nc3ccccc23)no1` was 8.22%. The value for `CN1CCN(S(=O)(=O)c2ccc(Cl)s2)CC1` was 9.12%; that for `CCS(=O)(=O)Nc1cccc(-c2ccc3nnc(C)n3n2)c1` was 4.16%. The value for `Cc1cc(S(=O)(=O)Nc2ccc3c(c2)n(C)c(=O)n3C)ccc1F` was 8.83%. In the case of `CCOC(=O)CNC(=O)c1sc2nc(C)cc(C)c2c1N`, the “hERG current change (%, negative = inhibition) at 1uM” value turned out to be 17.2%. Next, `Cc1ccc(Cn2nc(C)c(NC(=O)c3noc4c3CCCCC4)c2C)cc1`: -11.7%; `O=C(Nc1cnn(Cc2ccc(Cl)cc2Cl)c1)c1noc2c1CCCC2`: 16.2%; `CSCCC1NC(=O)N(CC(=O)N2CCc3ccccc3C2)C1=O` (stereo not drawn): -0.462%. The value for `O=C(COc1ccc(Nc2ccccc2)cc1)OCC(=O)N1CCCCC1` was 14.8%; that for `CN(C(=O)CSc1nnc(-c2cccnc2)n1-c1ccccc1F)C1CCS(=O)(=O)C1` (stereo not drawn) was 10.8%; that for `Cc1cnc(CN(C)C(=O)CC2C(=O)NCCN2Cc2cccc(F)c2F)[nH]1` (stereo not drawn) was 11.2%. The value for `COc1ccc(CCNC(=O)CSc2nnc(-c3ccccc3)c3ccccc23)cc1OC` was 8.01%; that for `COC(=O)N/N=C/c1cc(C)n(-c2ccc(Br)cc2)c1C` was 11.4%; that for `O=C1CSC(c2ccccc2)N1CC12CC3CC(CC(O)(C3)C1)C2` (stereo not drawn) was -1.42%.

`CC1=CC2=NC(=O)/C(=C\c3cccn3CCOc3cc(C)ccc3C)C(=N)N2O1`: the “hERG current change (%, negative = inhibition) at 1uM” value is on record as 12%.

On to `O=C(Nc1nncs1)C1COc2ccccc2O1` (stereo not drawn), for which the “hERG current change (%, negative = inhibition) at 1uM” value amounted to 15%. Next, `COc1ccc(OC)c(S(=O)(=O)NCCC(C)C)c1`: 8.96%; `CC(CCc1ccccc1)NC(=O)c1cc2sccc2n1C` (stereo not drawn): -0.148%. The value for `O=C(NC(=S)Nc1ccccc1Br)C1CC1` was 8.5%. The value for `O=C(c1ccc(F)cc1)c1c[nH]c(C(=O)NCc2ccco2)c1` was 2.62%; that for `O=[N+]([O-])c1ccccc1S(=O)(=O)NCCSCc1ccco1` was 9.5%.

As to `COc1ccc(C(=O)NNC(=O)COc2ccc(Cl)cc2)c(OC)c1`, the “hERG current change (%, negative = inhibition) at 1uM” value was 9.45%. Next, `CS(=O)(=O)c1cnc(-c2ccccc2)nc1-c1ccc(Cl)c(Cl)c1`: 16.2%; `COC(=O)C1=C(c2ccc(F)cc2F)C[C@@H]2CC[C@H]1N2C(=O)N1CCC(O)CC1`: 7.3%. The value for `O=C(Nc1ccccc1-c1ccccc1)C12CC3CC(CC(C3)C1)C2` was 9.48%; that for `CCN1C(=O)NC(=O)/C(=C\c2cn(CC(=O)O)c3ccccc23)C1=O` was 10.8%; that for `Cc1c(C(=O)N2CCC[C@H]2CO)oc2c(F)cccc12` was 9.53%. Next, `O=C1NC(NS(=O)(=O)c2ccccc2)(C(F)(F)F)C(=O)N1c1cccc(Cl)c1` (stereo not drawn): 6.04%; `CC(=O)O[C@]1(C(C)=O)CC[C@H]2[C@@H]3C=C(Cl)C4=CC(=O)[C@@H]5C[C@@H]5[C@]4(C)[C@H]3CC[C@@]21C`: 2.08%. For the compound `CCCc1cc(-c2ccc3c(c2)COc2c4ccccc4nn2-3)on1`, the “hERG current change (%, negative = inhibition) at 1uM” value came out at 4.47%. Consider `Fc1ccc(CSc2ncnc3scc(-c4ccccc4)c23)cc1`, for which the “hERG current change (%, negative = inhibition) at 1uM” value turned out to be 8.04%. Next, `COc1ccc(Nc2nc(NCCN3CCOCC3)nc(Nc3ccc(OC)cc3)n2)cc1`: -10.1%. Regarding `COc1ccc(/C=C(\C#N)C(=O)N=CN(C)C)cc1`, the “hERG current change (%, negative = inhibition) at 1uM” value amounted to 2.91%.

Regarding `CCCc1cc(C(=O)NC2CCCN(Cc3ccccc3F)C2)no1` (stereo not drawn), the “hERG current change (%, negative = inhibition) at 1uM” value is listed as 8.27%. The value for `Cc1ccc(S(=O)(=O)n2cc(C=O)c3ccccc32)cc1` was 4.91%; that for `Cc1ccc[n+](CC(=O)N2CCCc3ccccc32)c1.[Cl-]` was 30.7%; that for `CS(=O)(=O)N1CCC(C(=O)N2CCN(c3ccccc3F)CC2)CC1` was 12.7%.

As for `COc1ccc(C(=O)Nc2ccc(NS(=O)(=O)c3ccccc3)cc2)cc1OC`, the “hERG current change (%, negative = inhibition) at 1uM” value was 5.86%.

Regarding `Cc1ccc(S(=O)(=O)Nc2ccccc2F)cc1C(=O)NNC(=O)c1ccccc1O`, the “hERG current change (%, negative = inhibition) at 1uM” value is 5.99%.

Consider `Cc1cc(C)c(NC(=O)CN(c2ccccc2)S(=O)(=O)N(C)C)c(C)c1`, for which the “hERG current change (%, negative = inhibition) at 1uM” value amounted to 1.04%. With `CCSc1nc2nc(C)cc(C)n2n1`, the “hERG current change (%, negative = inhibition) at 1uM” value is recorded as 28%. The value for `Cc1csc(NC(=O)c2cc(C)nc3ccccc23)n1` was -13.7%; that for `C=C(C)C1CC=C(C)/C(=N\NC(=O)CNc2ccccc2OC)C1` (stereo not drawn) was 18.5%; that for `CCCCN(C(=O)CC1CCCC1)c1c(N)n(CCC)c(=O)[nH]c1=O` was -1.1%. Next, `COC(=O)c1ccc(C(=O)N2CCCC(CNC(=O)c3ccccc3Cl)C2)cc1` (stereo not drawn): 2.8%.
